According to article PMC4336329 (PLoS ONE, 2015):
The whole screen tested about 310,000 compounds, of which about 14,000 (4.5%) showed an effect of 50% or more. The effect is printed as a negative number. The list shows a part of the results.

Molecular target: human ether-à-go-go-related gene (hERG) potassium channel (human, UniProt Q12809)
Assay: primary screen, population patch clamp on CHO cells stably expressing hERG
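Also: peak tail current of the secondary pulse compared with the same well before compound.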

human ether-à-go-go-related gene (hERG) potassium channel, sequence (Q12809 whole entry, looked up): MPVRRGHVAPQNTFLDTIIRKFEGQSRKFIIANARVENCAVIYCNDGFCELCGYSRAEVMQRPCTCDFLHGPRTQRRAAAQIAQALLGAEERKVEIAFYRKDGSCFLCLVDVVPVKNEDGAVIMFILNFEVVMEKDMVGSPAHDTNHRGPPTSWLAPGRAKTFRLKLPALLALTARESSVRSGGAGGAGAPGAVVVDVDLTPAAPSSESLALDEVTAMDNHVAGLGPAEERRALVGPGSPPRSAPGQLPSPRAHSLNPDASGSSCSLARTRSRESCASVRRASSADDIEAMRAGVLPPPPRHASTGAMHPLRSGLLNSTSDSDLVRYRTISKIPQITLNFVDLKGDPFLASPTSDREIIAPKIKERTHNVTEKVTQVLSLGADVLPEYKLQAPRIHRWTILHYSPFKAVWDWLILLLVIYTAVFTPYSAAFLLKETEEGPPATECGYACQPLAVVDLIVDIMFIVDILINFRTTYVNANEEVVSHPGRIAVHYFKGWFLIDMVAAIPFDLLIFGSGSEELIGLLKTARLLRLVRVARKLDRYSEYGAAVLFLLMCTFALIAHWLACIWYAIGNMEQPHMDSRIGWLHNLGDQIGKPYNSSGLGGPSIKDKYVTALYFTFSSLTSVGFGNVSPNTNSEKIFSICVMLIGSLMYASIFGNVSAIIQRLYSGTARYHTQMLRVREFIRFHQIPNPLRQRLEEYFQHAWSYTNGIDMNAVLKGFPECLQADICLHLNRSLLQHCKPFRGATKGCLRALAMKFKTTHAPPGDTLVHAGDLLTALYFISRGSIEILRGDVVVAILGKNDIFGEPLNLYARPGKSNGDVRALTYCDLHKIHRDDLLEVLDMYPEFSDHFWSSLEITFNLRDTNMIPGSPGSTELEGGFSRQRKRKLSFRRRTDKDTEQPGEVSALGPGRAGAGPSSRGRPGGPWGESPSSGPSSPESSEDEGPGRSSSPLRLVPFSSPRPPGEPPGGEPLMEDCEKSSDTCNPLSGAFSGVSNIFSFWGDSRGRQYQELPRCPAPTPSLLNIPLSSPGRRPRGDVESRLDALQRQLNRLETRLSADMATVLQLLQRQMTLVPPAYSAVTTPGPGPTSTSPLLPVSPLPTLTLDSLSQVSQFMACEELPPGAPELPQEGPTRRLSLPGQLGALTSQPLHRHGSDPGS

| Structure (SMILES) | hERG current change (%, negative = inhibition) at 10uM [%] |
| --- | --- |
| COc1cc(NS(=O)(=O)c2ccc(NC(=O)COc3ccccc3C)cc2)nc(OC)n1 | 14.4 |
| Cc1cc2cc(CN(Cc3ccc4c(c3)OCO4)C(=O)c3cnccn3)c3nnnn3c2cc1C | -34.2 |
| CN(C(=O)CSc1nnc(-c2ccc(OC(F)F)cc2)n1N)C1CCS(=O)(=O)C1 (centres unmarked) | -4.2 |
| CCn1c(C)nc2cc(C(=O)N/N=C(\C)c3ccccc3O)ccc21 | 9.04 |
| COCCCNC(=O)CCn1c(=O)c2ccccc2n(CC(=O)Nc2ccccc2C)c1=O | 9.98 |
| Brc1cccc(-c2nc(-c3ccncc3)no2)c1 | 11.9 |
| CC(c1nnc(SCC(=O)Nc2sccc2C#N)n1-c1ccc(Cl)cc1)N(C)C (centres unmarked) | -12.7 |
| NC(=O)c1ccc(NC(=O)COC(=O)CNC(=O)c2sc3ccccc3c2Cl)cc1 | -12.8 |
| O=C(c1ccco1)N1CCN(S(=O)(=O)c2ccc3[nH]c(=O)oc3c2)CC1 | -0.355 |
| CSc1ccc(CN(C)C(C)C(=O)NCC2CCCCC2)cc1 (centres unmarked) | -32.1 |
| O=C1C(Cl)=C(Nc2ccc3cn[nH]c3c2)C(=O)c2ccccc21 | 17.5 |
| O=C(C1CC(=O)N(c2ccc3c(c2)OCCO3)C1)N1CCN(Cc2ccccc2)CC1 (centres unmarked) | 0.404 |
| CCN(CC)C1=NS(=O)(=O)c2cc([N+](=O)[O-])ccc21 | -34.4 |
| COC(=O)c1ccc(C)c(NC(=O)CCc2cc(OC)c(OC)c(OC)c2)c1 | -16 |
| CN(C)CCCOC(=O)Cc1ccc(Cl)cc1.Cl | -15.7 |
| Cc1c([N+](=O)[O-])cc(C(=O)Nc2ccc(Cc3ccncc3)cc2)cc1[N+](=O)[O-] | -33.7 |
| CCOc1ccc(CCNC(=O)Cn2ccc3cc(S(=O)(=O)N4CCCC4)ccc32)cc1 | 7.21 |
| NS(=O)(=O)c1cccc2cccnc12 | 9.97 |
| O=C(NCc1ccco1)c1noc2c1CCCCC2 | 14.7 |
| OCc1cn(-c2ccccc2)nc1-c1ccco1 | 12.3 |
| COc1ccccc1N1CCN(S(=O)(=O)c2cn(C)nc2C)CC1 | -2.6 |
| CCCCCn1c(N)c(-c2nc3ccccc3o2)c2c([N+](=O)[O-])nn(CC)c(=O)c21 | 7.69 |

| Structure (SMILES) | hERG current change (%, negative = inhibition) at 10uM [%] |
| --- | --- |
| CCn1cc([N+](=O)[O-])c(C(=O)Nc2ccc3c(c2)OCCO3)n1 | -9.69 |
| CN(/N=C/c1cccc(Br)c1)C1=NS(=O)(=O)c2ccccc21 | -11.8 |
| CCN=C1SC(CC(=O)NCc2ccccc2)C(=O)N1CC (centres unmarked) | 17.6 |
| COc1ccc(CCNC(=O)C(=O)NCC2OCCN2S(=O)(=O)c2ccc(OC)c(C)c2)cc1 (centres unmarked) | -24.5 |
| CCOC(=O)C1=C(COC(=O)CCC(=O)c2ccc(C)cc2)NC(=O)NC1C (centres unmarked) | 19.3 |
| COc1ccc(N2CCN(C(=O)c3cc(=O)[nH]c4ccccc34)CC2)cc1 | -0.412 |
| Cc1ccc(-n2nc3c(c2NC(=O)c2ccc(F)c(F)c2)CS(=O)(=O)C3)cc1 | -1.48 |
| CCOc1ccccc1C1C(C#N)=C(N)Nc2onc(-c3ccccc3)c21 (centres unmarked) | 4.25 |
| COc1cc(C(=O)N/N=C(\C)Cc2ccccc2)cc(OC)c1OC | 9.1 |
| O=C(CN1CCN(c2ccc(Cl)cc2)CC1)c1ccccc1 | -6.33 |
| CC(C)(C)c1ccc(NC(=O)C2CCCN(c3cnccn3)C2)cc1 (centres unmarked) | -9.72 |
| Cc1ccc(S(=O)(=O)N2CCCCC2)cc1C(=O)Nc1ccccn1 | 14.5 |
| CCn1c(SCc2nc3ccccc3[nH]2)nnc1-c1cnccn1 | -7.51 |
| N/C(CC(=O)Nc1ccc(F)cc1)=N\O | -5.41 |
| O=C(COC(=O)c1ccc(Cl)c([N+](=O)[O-])c1)NC1CCCC1 | 14.4 |
| COc1ccc(N2C(=O)C3CCCN3C2c2cc(OC)c(OC)c(OC)c2)cc1 (centres unmarked) | -1.33 |
| O=C(O)c1ccc(CSc2ccccn2)cc1 | 10.1 |
| O=C(CSc1nnc(Cn2nnc3ccccc32)o1)Nc1cccc(Cl)c1 | 2.56 |
| CSc1nnc(C)c(=O)n1COC(=O)COc1ccc(F)cc1 | -35.6 |
| CCc1cc2c(=O)oc(-c3ccccc3F)nc2s1 | 12.1 |
| COc1ccc(S(=O)(=O)NCc2ccc3c(c2)OCO3)cc1C | -18.5 |
| Cc1cc(C)c(NC(=O)Nc2ccccc2)c(Cl)c1 | -7.39 |
